# Variants at the floor of the assay are shown more often than the library holds them.
# B1: TPR 5TU (parent)
# chain: GGAUCUUCUCGAUCUAACAAAAAAGACAAAUCUGCCACAAAGCUUGAGAGCAUCUUCGGAUGCAGAGGCGGCAGCCUUCGGUGGCGCGAUAGCGCCAACGUUCUCAACUAUGACACGCAAAACGCGUGCUCCGUUGAAUGGAGUUUAUCAUG
# Variants of: B1
# Experiment: polymerase ribozyme fitness, log enrichment relative to wild type (log ratio); higher = more active; in vitro selection for triplet polymerase activity
# Procedure, shortened: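 In triplicate, a single round of in vitro selection was run on each mutant library, PCR-built and transcribed, covering one subunit of a heterodimeric triplet polymerase ribozyme. Frozen incubation at −7 °C followed annealing with a biotinylated primer, partner subunit and triplets, and extended constructs were then gel-excised, streptavidin-captured and taken through RT-PCR. Fitness is the logarithm of genotype enrichment over wild-type enrichment, from inverse-variance-weighted replicate averages of Illumina-sequenced inputs and outputs. […] only genotypes with ≥10 input reads and ≥1 read per output were kept.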
row,Variant,polymerase ribozyme fitness (log ratio)
1,U102A U109G G117A,≤ -4.2
2,C99A G143A,-2.02
3,C108A A115G G124C G133U,≤ -4.2
4,C114U A122G,-1.87
5,U109G C125U C129U,-4.06
6,C108U C116U A142U U151A,≤ -4.2
7,U104A C114U A138C,≤ -4.2
8,C103G G143U,≤ -4.2
9,G141U U146A,0.37
10,U144A U145A,-0.541
11,U104G A113U U127A G141A,≤ -4.2
12,C116A C131A,≤ -4.2
13,C131G U146G,≤ -4.2
14,U127C U139C U151G,≤ -4.2
15,C116G C125G,≤ -4.2
16,A122C G141C A147C,≤ -4.2
17,C125U U146G,-1.15
18,A107G A113C,≤ -4.2
19,U127G G140A,-4.15
20,C105G C149G A150C,≤ -4.2
21,A120U U135C,-2.85
22,C105A G140U,-4.11
23,C123A G128A A150G,≤ -4.2
24,C105U G124U,-0.374

row,Variant,polymerase ribozyme fitness (log ratio)
1,A107C A142C,-4.05
2,U101G C105A C116U U134C,≤ -4.2
3,G140U U144C,-3.28
4,G143C U146A,-3.65
5,A107C G136U,≤ -4.2
6,C116U U151C,-4.04
7,C116U U151G,≤ -4.2
8,A137U U144A,≤ -4.2
9,G141A G143U,≤ -4.2
10,G117U G143A,-0.982
11,A107G G141C,-3.86
12,G112A U148C,-4.13
13,A138C A142G,-3.66
14,G141A A147C,-3.63
15,C118U A119U,-0.842
16,A107C C129A U145C,≤ -4.2
17,U101C C131A U146C C149G,≤ -4.2
18,C99U G126U,-0.0913
19,U135C U145C,-2.51
20,A119U G140U,-3.25
21,A107G C108G G143U,≤ -4.2
22,U146A U151A,≤ -4.2
23,A119G C125A,0.204
24,C108G G143C A147C,≤ -4.2

row,Variant,polymerase ribozyme fitness (log ratio)
1,A138G U146G,≤ -4.2
2,C103A U146C,-1.49
3,A138C U144G,-3.7
4,A110U C114G A115C U134A G136C,≤ -4.2
5,G126U U135C,-1.61
6,A113C G126A C129A C131U A137C,≤ -4.2
7,C114U U139C,-3.63
8,C108U U135C U145G,≤ -4.2
9,U101A,0.177
10,U101G,0.557
11,C103G U130A,-4.04
12,G112A C116U G141U,≤ -4.2
13,U130G U135G,≤ -4.2
14,C105G G141C,-2.56
15,U102A C114G U145G,≤ -4.2
16,C132U U145G,-0.815
17,G133C U144C C149U,-3.98
18,U101C A106C G126A C149G,≤ -4.2
19,U135C G136A U151G,≤ -4.2
20,C99U A107G,-4.16
21,C99A G126A G140C,≤ -4.2
22,C99U G141A,-0.231
23,C125U G143U,-3.2
24,A107C U146G U151G,≤ -4.2

row,Variant,polymerase ribozyme fitness (log ratio)
1,C103A A107C A142C,≤ -4.2
2,C125A U148A,-3.93
3,C125U U134A,-1.89
4,U109A G124A G140C,≤ -4.2
5,A110G C149G,-3.83
6,G100U A121U A142G U144A U148G,≤ -4.2
7,C108U C114U,-4.06
8,G143A U145A,-2.03
9,C129A U148A,≤ -4.2
10,A115G U146A,-1.38
11,G140A G141A,-3.15
12,A142U C149A,≤ -4.2
13,A107G C132G G140C U148C,≤ -4.2
14,C114U G124U,-3.13
15,C99G A107U,≤ -4.2
16,U109G A115U C125A,-4.05
17,U101A A115U G141A,-2.17
18,U135G A137U U139A U151G,≤ -4.2
19,A137U G141U A147U,≤ -4.2
20,U146C A150U,0.851
21,C108A G126U,≤ -4.2
22,C99U A115C,-1.19
23,G126A U127G C149G,≤ -4.2
24,C99A A120C U148G,≤ -4.2

row,Variant,polymerase ribozyme fitness (log ratio)
1,A106G A113U U135G,≤ -4.2
2,C99U G143C,-2.66
3,C116U U139C,≤ -4.2
4,C105U A120G A122C,0.479
5,A98U C99U A107G,≤ -4.2
6,C108U G143C,≤ -4.2
7,C131A A150G,≤ -4.2
8,C125A,-0.171
9,C125U,-0.476
10,C125G,-0.473
11,A115U C118A,-1.83
12,U104G C118A A122C,-2.35
13,C114G A142C,≤ -4.2
14,C114U A137C,-3.52
15,U102G A113G G133U,≤ -4.2
16,U102G G141C,-3.94
17,A106U U135A A150U,-1.22
18,U102G,-2.51
19,U102A,-0.854
20,U102C,-0.787
21,C99A U127G G143A U148G,≤ -4.2
22,A115C U139A A142U,≤ -4.2
23,U134G U151G,≤ -4.2
24,C99G A113C U135C,≤ -4.2

row,Variant,polymerase ribozyme fitness (log ratio)
1,G124U G140A,-4
2,C108U G133U,-3.96
3,C105U A138U,-2.82
4,U134G A137G A150C,≤ -4.2
5,A110C A121U,-4.04
6,G136A A137U G141U A142G,≤ -4.2
7,C108U G136U,-3.41
8,C125G A142C,-4.01
9,U139A G143A,≤ -4.2
10,A122G G143A,-1.03
11,G133U A138U U144G,≤ -4.2
12,C129U U148G,≤ -4.2
13,C103A G140U G143U,≤ -4.2
14,U144C,0.0778
15,U144A,-0.043
16,G143U,-1.84
17,G143C,-1.78
18,G143A,-0.315
19,C125U U145C,-0.634
20,A106C G141C C149A,≤ -4.2
21,A115U G136A,-1.18
22,G136C U146C,-2.93
23,U102G A107G G112U,≤ -4.2
24,A119U U134A,-2.99

row,Variant,polymerase ribozyme fitness (log ratio)
1,C108A C116G G128A U130G,≤ -4.2
2,C123A C132G,-3.17
3,C99A U135A,-2.77
4,C123A G141C,0.333
5,A107G C116A A120G,≤ -4.2
6,A113U G117U,-2.07
7,C99A A107G,≤ -4.2
8,A98U C99G C108U A110U A122U G141C U146G,≤ -4.2
9,U109G G124C C131G,≤ -4.2
10,A98U C116G C123U A137C,≤ -4.2
11,U102A A113C,-3.86
12,U111A G124A U135C,-3.76
13,A98U C116A G141U,≤ -4.2
14,U101A A138C U151C,≤ -4.2
15,C108G U144A,≤ -4.2
16,U102G U127C,-4.17
17,G124U U134G,-2.98
18,U101G A138U,-3.25
19,G133C U151C,≤ -4.2
20,G133U U148G,-4.1
21,U109G A110C,≤ -4.2
22,A98U G136U,-2.64
23,G126A G133C U146C,-2.5
24,C114A C132U G133C,-3.96

row,Variant,polymerase ribozyme fitness (log ratio)
1,U134A A142G U144G,-2.83
2,U111A G143C,≤ -4.2
3,C99A A113G G141C,≤ -4.2
4,C149U A150G,-2.95
5,C114A U134G G143C,≤ -4.2
6,G100A A119G,≤ -4.2
7,A147C,0.176
8,A147G,-0.913
9,A147U,1.1
10,G126U G133U G143A U145G,≤ -4.2
11,U109A A137C A150G,≤ -4.2
12,C99U U145G,-2.09
13,U102A C114U A115G A120U,-3.62
14,U104G A142G G152U,-3.73
15,C103A C116U G128A C149A,≤ -4.2
16,C103U G140C,≤ -4.2
17,A121C,0.117
18,A121G,-0.0563
19,A121U,-0.0614
20,A107G G140U U151A,≤ -4.2
21,A119U A121G U135C U146A A150G,-3.77
22,A98U C118U U144G,0.244
23,U101G A120G,-0.0391
24,G100U A142C,-4.17

row,Variant,polymerase ribozyme fitness (log ratio)
1,C118A A138C,≤ -4.2
2,U134G,-2.37
3,U134A,-2.25
4,U134C,0.0692
5,G117U U135C,-2.36
6,G152U,-2.19
7,G152C,-2.58
8,G152A,-1.77
9,A122G A138C,≤ -4.2
10,C99A G128A,≤ -4.2
11,C131A A138C U139G,-3.67
12,U134A A138C,≤ -4.2
13,C116U U145C U148C,-2.77
14,C99G A115C G140U U148G,≤ -4.2
15,A121G G143A A147U,-1.46
16,A115C C132U G141C,≤ -4.2
17,C116A C118G A137U,≤ -4.2
18,C99G U146G,-1.32
19,U102A G128U A138U,≤ -4.2
20,U101G C105A,≤ -4.2

# Reference: the RNAGym collection of RNA variant scans (doi:10.1073/pnas.2313332121)
